Measured values published in the supplement of paper PMC12217912.
The other results are listed elsewhere or left out. Sequences were assembled here from the parent chain. Values near 0.05 are background.

B1: TEV protease; numbered along this chain (parent)
chain: MGESLFKGPRDYNPISSSICHLTNESDGHTTSLYGIGFGPFIITNKHLFRRNNGTLVVQSLHGVFKVKDTTTLQQHLVDGRDMIIIRMPKDFPPFPQKLKFREPQREERICLVTTNFQTKSMSSMVSDTSCTFPSGDGIFWKHWIQTKDGQCGSPLVSTRDGFIVGIHSASNFTNTNNYFTSVPKNFMELLTNQEAQQWVSGWRLNADSVLWGGHKVFMVKPEEPFQPVKEATQL

Variants of: B1
Assay: raw area under fraction-flipped curve 0-4 h after induction (AUC4h, not background-subtracted), DNA-recorder readout of cleavage of the substrate (dimensionless); higher = more cleavage of the substrate by the protease variant
Conditions: temperature: 34 °C; time window: 0-4 h after rhamnose induction
Method: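 In vivo DNA recorder in E. coli TOP10(DE3) ΔrhaA at 34 °C. Each TEVp single-site mutant (parent TEVp 0) is paired with a single-site variant of the 7-mer TEVs (canonical ENLYFQ|S). The substrate sits between flexible linkers in a Bxb1-sfGFP-TEVs-SsrA fusion, so cleavage stabilises Bxb1 and speeds flipping of a recombination array, read by NGS. The value is the raw area under the fraction-flipped curve over 0-4 h after rhamnose induction (AUC4h), with ≥20 reads per time point. It is not background-subtracted; inactive controls average about 0.047.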
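Further: Bxb1 expression induced with 0.2% (w/v) L-rhamnose at OD600 near 0.5, cultures sampled hourly, flipped fraction per protease–substrate barcode pair counted by paired-end Illumina sequencing.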

Variant	area with substrate ENAYFQS	area with substrate ENCYFQS	area with substrate ENDYFQS	area with substrate ENEYFQS	area with substrate ENFYFQS	area with substrate ENGYFQS	area with substrate ENHYFQS	area with substrate ENIYFQS	area with substrate ENKYFQS	area with substrate ENMYFQS	area with substrate ENNYFQS	area with substrate ENPYFQS	area with substrate ENQYFQS	area with substrate ENRYFQS	area with substrate ENSYFQS	area with substrate ENTYFQS	area with substrate ENVYFQS	area with substrate ENYYFQS	area with substrate ENWYFQS
Q118A	0.0639	0.0634	0.0068	0.0647	0.0622	0.141	0.0569	0.123	0.0608	0.0701	0.0602	0.057	0.0351	0.061	0.0551	0.0686	0.0764		
Q118F	0.0384	0.0717	0.0676	0.0684	0.0701		0.0503	0.102			0.0562	0.0642		0.0575	0.0586	0.07	0.0813	0.0369	
Q118N	0.0618			0.0414	0.0567					0.0717	0.0691		0.0572		0.0683	0.0576			
Q118G	0.0653	0.0654	0.0703	0.0592	0.112	0.0585		0.132			0.0675	0.061	0.0598	0.0639	0.0599		0.102	0.1	
S121E	0.0649	0.0707		0.059	0.0681	0.0571	0.0696						0.0671	0.0642	0.0225	0.0614	0.0813		
S121A	0.144	0.0573	0.0644	0.0526	0.0622	0.0615	0.0633	0.122	0.0613		0.0756		0.0651		0.0462	0.0513		0.0583	
S123T	0.0728		0.0655	0.0616			0.0484	0.107			0.0558	0.0468	0.0652	0.0522	0.0547	0.0473	0.0809		
T129P	0.0756	0.0664	0.06	0.0479	0.0406		0.0691	0.0764		0.0696	0.0741	0.0693	0.061	0.0559	0.0667	0.063	0.0701	0.0599	0.0566
P134E	0.0548	0.0504	0.0689	0.0636	0.0538	0.0814	0.0499		0.0392	0.0683			0.0708		0.0612	0.0623			
P134L	0.0459		0.0644	0.0592			0.0577			0.07	0.049	0.0279	0.0518	0.0734	0.0569	0.0624	0.0641	0.0523	
D128H	0.0658	0.0719	0.0331		0.0775	0.0769	0.0423	0.114	0.0658	0.0906	0.0621	0.0524	0.0597	0.078	0.0491	0.0633	0.0801	0.0556	
T114M	0.0501		0.0398	0.069	0.0544	0.0599	0.0597				0.0527	0.068			0.0888	0.0778	0.0793	0.0624	0.0612
M122Y	0.0742	0.0708	0.063	0.0524	0.0093	0.033	0.057		0.0686	0.0702	0.0596	0.0654	0.0621	0.0539	0.0471	0.0685	0.0867	0.0434	
M122P	0.0621		0.0544	0.0627	0.0721			0.0636			0.0367	0.0567	0.0379	0.0544	0.0624		0.0821	0.0391	
I139N	0.0623	0.0601	0.0531	0.0654	0.056		0.0678	0.103	0.0557			0.0673	0.0569	0.0585	0.0664	0.0597	0.0755		0.0586
I110H	0.0515	0.0488	0.0516	0.0461	0.0458	0.0478	0.0529		0.0388		0.053	0.0559	0.0583		0.0547	0.0517	0.0546	0.0687	
V113H	0.0673		0.0689	0.0656	0.0386		0.064		0.0407	0.0807		0.0567	0.0639	0.0285	0.0458			0.0516	0.066
V113D	0.0563	0.0405	0.0462	0.0516	0.0475	0.0424	0.0455	0.0562	0.0458	0.0446	0.0485		0.0557	0.061	0.0557	0.0641	0.0396		0.006
V113L	0.0708	0.0666	0.0623	0.0549	0.0641	0.0631	0.0598	0.089	0.0643	0.0829	0.0699	0.0476	0.0831	0.0685	0.0854	0.0709			
T132S	0.0659		0.0663	0.0557	0.0669									0.0527		0.0628			
T132G	0.0642	0.0678	0.0684	0.063	0.0731	0.0641	0.0543	0.115	0.0538	0.0788		0.0582	0.082	0.0571		0.0685	0.0643		0.0049
T115C	0.0521		0.0657	0.0612	0.053	0.0577	0.0627					0.0608	0.0426	0.0638	0.0552	0.056	0.0621	0.0622	
N116A	0.0456	0.0686	0.0579	0.0258	0.057	0.0452		0.111		0.0795		0.0524	0.0555	0.0628	0.0405	0.0632	0.0677		0.0473
F117M	0.073	0.0564		0.0658	0.0544	0.0623			0.0635				0.0856	0.047	0.105				
S135D	0.0594	0.0685		0.0592	0.0544	0.0667		0.102				0.0588	0.0822		0.0654				
S135I	0.0557	0.0697	0.0422	0.0639	0.0475	0.0659			0.0591		0.0871	0.0771		0.0591	0.0571	0.0586	0.0415	0.0629	
